Measured values taken from the RNAGym collection of RNA variant scans (doi:10.7554/elife.90254).
Read counts are not given, so values of variants with three or more changes are uncertain.

B1: LINE1-mini (parent)
chain: GGCAGAGCUCAACACAGCGUGGCAAAGUGGCUGUGGCUAGACUGCC

Variants of: B1
Assay: self-cleavage, relative activity (ratio to wild type); higher = more cleavage; in vitro, sequencing; the parent is a self-cleaving ribozyme

Row | Variant | self-cleavage
1 | GGAAGAGCUCAACAUAGCGGGGCAAAGUGGCUGUGACUAGACUGCC | 0.37
2 | GGAAGAGCUCAACACAGAGUGGCAUAGUUGCUGUGGCUACACUGCC | 0.1
3 | GGAAGAGCUCAACACAGGGUGGCAAAGUGGCUGUGGCUAGCCUGCC | 0.1
4 | GGAAGAGCUCAACACAGGGUGGUAAAGUGGCUGUGGCUAGACUGCC | 0.6
5 | GGAAGAGCUCAACACAGGGUGCCAAAGUGGCUGUGGCUAGACUGCC | 0.53
6 | GGAAGAGCUCAACACAGGGUGGCAAAGUGGCUGUUGCUAGACUGAA | 0.12
7 | GGAAGAGCUCAACACAGUGUGGAAAAGUGGCUGUGGCUAGACUACC | 0.53
8 | GGAAGAGCUCAACACAGUGUGGCAAAGUGGCUGUGGCUAGACGGCC | 1.94
9 | GGAAGAGCUCAACACAGCGUGGACAAGUAGCUGUGGCUAGACUGCC | 0.3
10 | GGAAGAGCUCAACACAGCGUGGAAAAGUGGCAAUGGCUAGACUGCC | 0.14
11 | GGAAGAGCUCAACACAGCGUGGGAUAGUGGCUGUAGCUAGACUGCC | 0.18
12 | GGAAGAGCUCAACACAGCGUGGGAAAGCGGCUGUGGCUGGACUGCC | 0.04
13 | GGAAGAGCUCAACACAGCGUGGUACAGUGGCUGUGGCUAGACUGAC | 0.05
14 | GGAAGAGCUCAACACAGCGUGGUAAAGUGGCUUUUGCUAGAAUGCU | 0.11
15 | GGAAGAGCUCAACACAGCGUGGCAAAGUGGAUGUGGCUGGACUGCC | 0.1
16 | GGAAGAGCUCAACACAGCGUGGCAAAGUGGGUGUGGCUAGACUGAC | 0.05
17 | GGAAGAGCUCAACACAGCGUGGCAAAGUGGGAGUGGCCAGACUGCC | 0.04
18 | GGAAGAGCUCAACACAGCGUGGCAAAGUGGCUGUGGAUAGACUGAC | 0.14
19 | GGAAGAGCUCAACACAGCGUGGCAAAGUGGCUGUGGCUAGAUUCCC | 0.22

Row | Variant | self-cleavage
20 | GGAAAUGCUCAGCACAGCGUGGCAAAGUGGCUGUGGCUAGACUGCC | 0.15
21 | GGAAAAGCUCUACACAGCGUGGCAAAGUGGCUGUGGAUAGACUGCC | 0.03
22 | GGAAAAGUUCAAAACAGCGUGGCGAAGUGGCUGUGGCUAGACUUUC | 0.35
23 | GGAAAAGUUCAACACAGCGUGGCAAAGUGGCUGUGGCUAAACGGCC | 0.71
24 | GGAAAAGCUCAACAGAGCGUGGCAAAGUGGCUGUGGCUAGACUGCC | 0.07
25 | GGAAAAGCUCAACACAGGGUAGCAAAGUGGCUGUGGCUAGACUUCC | 0.04
26 | GGAAAAGCUCAACACAGUGUGGCAAAGUGGCUGUGGCUAGACUGCC | 0.2
27 | GGAAAAGCUCAACACAGCGUAGCAAAGUGGCUGUGGCUAGACUGCC | 1.35
28 | GGAAAAGCUCAACACAGCGUGGCAAAGUGGCUGUGGCUAAAUUGCC | 0.17
29 | GGAACAGCUCAGCACAGAGUGGCUAAGUGGCUGCGGCUAAAAUGCC | 0.13
30 | GGAACAGCUCAACCCAGCGUGGCAAAGUGGCUGUGGCUAGACUGCC | 0.05
31 | GGAACAGCUCAACCGAGCGUGGCAAAGUGGCUGUGGCUAGACUGCC | 0.28
32 | GGAACAGCUCAACUCAGCGCGGCAAAGUGGCUGUGGCUAGACUGCC | 0.09
33 | GGAACAGCUCAACACAGCGUGGCCAAGUGGCAGUGGCCAGACUGCC | 0.52
34 | GGAACAGCUAAACACAGCGUGGCAAAGUGGCUGUGGCUAGACUUCC | 0.01
35 | GGAACAGCUCAAGACAGCGCGGCAAUGUGGCUGUGGCUAGACUGCC | 0.21
36 | GGAACAUCUCAACGCAGCGAGGCAAAGUGGCUGUGGCUAGACUGCC | 0.55
37 | GGAACAGCUCAACACAGCGUAGCAAAGUGGCUGUCGCUAGACUGCC | 0.1
38 | GGAACAGCUCAACACAGCGUUGCAAAGUGGCUGAGGCUAGACUGCC | 0.14

Row | Variant | self-cleavage
39 | GGAACAGCUCAACACAGCGUGCCAAAGUGGCUGUGGCUAGACUGCC | 0.05
40 | GGAACAGCACAACACAGCGUGGCAAAGUGGAUGUGGCUCGACUGCC | 0
41 | GGAACAGCGCAACACAGCGUGGCAAUGUGGCUGUGGAUAGACUGCC | 0.55
42 | GGAACAGCUCAACACAGCGUGGCAAAGAGGGUGUGGCUAGACUGCC | 0.13
43 | GGAAUUGCUCAACACAGCGUGACAAAGUGGCUAUGGCUAGACUGCC | 0.24
44 | GGAAUAGCUCUACACAGCGUGGCAAAGUGGCUGUGGCUAGACUGCC | 0.05
45 | GGAAUAGCUCACCACAUCGUGGAAAAGUGGAUGUGGCUAGACUACC | 0.02
46 | GGAAUAGCUCAACACAGCGUGGCAAAGUGGCUGUGGCUAGUCUGCC | 0.08
47 | GGAAGAACUCACCCCAGCGUGGCAAAGUGGCUGUGGCUAGACUUCC | 0.06
48 | GGAAGAACUAAACACAGCUAGGCAAAGUGGCUGUGGCUAGACUGCC | 0.05
49 | GGAAGAACUGAACACAGCGUGGCAGAGUGGCUCUGGCGAGAGUGCC | 0.01
50 | GGAAGAACUCAACAGAGCGUGGCAAAGUGGCUGUGGCUAGACUUCG | 0.54
51 | GGAAGAACUCAACACAGCGUGGCAAAGUGGCUGUGGCUAGACUGCU | 0.99
52 | GGAAGACCUCGUCAAAGUGUGGCAAAGUGGCUGUGGCUAGACUGCU | 0.04
53 | GGAAGACCUCAGCACAGCGUGGCAAAGUGGCUGUGGAUAGACUGCC | 0.13
54 | GGAAGACCUCAACACGGCUUGGCAAAGUGGCUGUAGCUUGACUGCC | 0.03
55 | GGAAGACCUCAACACAGCGUGGCAAAGUGGGUGUGGCUAGACUGCC | 0.05
56 | GGAAGACCUCAACACAGCGUGGCAAAGUGGCUGUGGCCAGACUGCC | 0.17
